Source: PMC2963127, “Genotoxicity Revaluation of Three Commercial Nitroheterocyclic Drugs: Nifurtimox, Benznidazole, and Metronidazole” (Journal of Parasitology Research, 2009)

Columns and labels:
[1] = tested on: Salmonella typhimurium TA98NR; conditions: for Revertant/plate: TA98NR without S9
[2] = tested on: Salmonella typhimurium TA100NR; conditions: for Revertant/plate: TA100NR without S9

Q: With `O=[N+]([O-])c1ccc2c(c1)Cc1ccccc1-2` [2-NF, 2-nitrofluorene] as the compound, how does the Revertant/plate ([1]; 15 μg/plate) read?
A: 19 ± 4

Q: What does the source list for `CCN(CC)CCNc1ccc(CO)c2sc3ccccc3c(=O)c12` [HYC, hycantone]?
A: Revertant/plate ([1]; positive control 75 μg/plate): 833 ± 71; Revertant/plate ([2]; positive control 75 μg/plate): 785 ± 97

Q: For `O=C(Cn1ccnc1[N+](=O)[O-])NCc1ccccc1` [BNZ, N-benzyl-2-(2-nitroimidazol-1-yl)acetamide], which Revertants ([1]; TA98NR -S9, 5 µg/plate) is on record?
A: 24± 3

Q: What about the Revertants ([1]; TA98NR -S9, 10 µg/plate) of the same compound?
A: 28± 2

Q: What about the Revertants ([1]; TA98NR -S9, 20 µg/plate) of the same compound?
A: 23± 3

Q: What about the Revertants ([1]; TA98NR -S9, 40 µg/plate) of the same compound?
A: 24± 5

Q: And the Revertants ([1]; TA98NR -S9, 80 µg/plate)?
A: 27± 3

Q: What about the Revertants ([1]; TA98NR -S9, 125 µg/plate) of the same compound?
A: 30± 3

Q: What about the Revertants ([1]; TA98NR -S9, 250 µg/plate) of the same compound?
A: 46± 9

Q: And the Revertants ([1]; TA98NR -S9, 500 µg/plate)?
A: 54± 11

Q: What about the Revertants ([2]; TA100NR -S9, 5 µg/plate) of the same compound?
A: 247± 19

Q: What about the Revertants ([2]; TA100NR -S9, 10 µg/plate) of the same compound?
A: 249± 6

Q: And the Revertants ([2]; TA100NR -S9, 20 µg/plate)?
A: 233± 6

Q: What about the Revertants ([2]; TA100NR -S9, 40 µg/plate) of the same compound?
A: 318± 9

Q: And the Revertants ([2]; TA100NR -S9, 80 µg/plate)?
A: 343± 26

Q: Which Revertant/plate ([1]; 20 ng/plate) does the source give for `NC(=O)C(=Cc1ccc([N+](=O)[O-])o1)c1ccco1` [FYFA, 2-(2-furyl)-3-(5-nitro-2-furyl)acrylamide] here?
A: 25 ± 4

Q: And the Revertant/plate ([2]; 20 ng/plate)?
A: 247 ± 34

Where two headings read alike, the source gives them in different places.
